Measured values reported in patent US20250295648A1 (priority 2024, published 2025).
Several values for one entry are separate records, joined by “and”; a condition that tells them apart may be missing. Identical values can stand only once.

Tested on: patients with moderate to severe L-DOPA-induced dyskinesia (LID) in Parkinson's disease
Assay: Phase 2a study: adverse events (frequency, intensity, seriousness, causality), tolerability

## Cc1ccc(CNCC2(F)CCN(C(=O)c3ccc(F)c(Cl)c3)CC2)nc1 [NLX-112, (3-chloro-4-fluoro-phenyl)-[4-fluoro-4-{[(5-methyl-pyridin-2-ylmethyl)-amino]-methyl}piperidin-1-yl]methanone]
FAS, whole study, N=18
  AE severity Death: events m: 0
  AE severity Death: subjects n: 0
  Any AE leading to death: events m: 0
  Any AE leading to death: subjects n: 0
  COVID-19: events m: 0
  COVID-19: subjects n: 0
  Cardiac disorders (SOC): events m: 1
  Cardiac disorders (SOC): subjects %: (5.6%)
  Cardiac disorders (SOC): subjects n: 1
  Cataract operation: events m: 2
  Cataract operation: subjects %: (5.6%)
  Cataract operation: subjects n: 1
  Condition aggravated: events m: 1
  Condition aggravated: subjects %: (5.6%)
  Infections and infestations (SOC): events m: 5
  Infections and infestations (SOC): subjects %: (17%)
  Infections and infestations (SOC): subjects n: 3
  Inflammatory marker increased: events m: 1
  Inflammatory marker increased: subjects %: (5.6%)
  Inflammatory marker increased: subjects n: 1
  Influenza: events m: 1
  Influenza: subjects %: (5.6%)
  Influenza: subjects n: 1
  Injury, poisoning and procedural complications (SOC): events m: 6
  Injury, poisoning and procedural complications (SOC): subjects %: (17%)
  Respiratory tract infection: events m: 1
  Respiratory tract infection: subjects %: (5.6%)
  Respiratory tract infection: subjects n: 1
  SAE Persistent or Significant Disability/Incapacity: events m: 0
  SAE Persistent or Significant Disability/Incapacity: subjects n: 0
  Urinary tract infection: events m: 2
  Urinary tract infection: subjects %: (5.6%)
  Urinary tract infection: subjects n: 1
down-titration (ND), N=15
  AE severity Death: events m: 0
  AE severity Death: subjects n: 0
  Any AE leading to death: events m: 0
  Any AE leading to death: subjects n: 0
  SAE Persistent or Significant Disability/Incapacity (PSD/I): events m: 0
  SAE Persistent or Significant Disability/Incapacity (PSD/I): subjects n: 0
In vivo
  AE action taken Drug Interrupted: events m: 0
  AE action taken Drug Interrupted: subjects n: 0
  AE severity Life-Threatening: events m: 0
  AE severity Life-Threatening: subjects n: 0
  AE severity Severe: events m: 0
  AE severity Severe: subjects n: 0
  Alopecia: events m: 0
  Alopecia: subjects n: 0
  Any AE leading to WFS (withdrawal from study): subjects %: (5.6) %
  Any AE leading to withdrawal from study: events m: 3
  Any AE leading to withdrawal from study: subjects %: (5.6%)
  Any AE leading to withdrawal from study: subjects n: 1
  Any SAE: events m: 0
  Apathy: events m: 1
  Apathy: subjects %: (5.6%)
  Apathy: subjects n: 1
  Arthralgia: events m: 1
  Arthralgia: subjects %: (5.6%)
  Arthralgia: subjects n: 1
  Back pain: events m: 2
  Back pain: subjects n: 2
  Binocular eye movement disorder: events m: 1
  Binocular eye movement disorder: subjects %: (5.6%)
  Binocular eye movement disorder: subjects n: 1
  Condition aggravated: subjects n: 1
  Depression: events m: 0
  Depression: subjects n: 0
  Diarrhoea: events m: 1
  Diarrhoea: subjects %: (5.6%)
  Diarrhoea: subjects n: 1
  Dissociation: events m: 2
  Dissociation: subjects n: 2
  Dizziness: events m: 2
  Dizziness: subjects n: 2
  Dizziness: subjects, %: (11) %
  Dry eye: events m: 0
  Dry eye: subjects n: 0
  Dry mouth: events m: 1
  Dry mouth: subjects %: (5.6%)
  Dry mouth: subjects n: 1
  Dyskinesia: events m: 2
  Dyskinesia: subjects %: (11%)
  Dyskinesia: subjects n: 2
  Dyskinesia: subjects, %: (11) %
  Ear and labyrinth disorders (SOC): events m: 3
  Ear and labyrinth disorders (SOC): subjects %: (11%)
  Ear and labyrinth disorders (SOC): subjects n: 2
  Erythema of eyelid: events m: 1
  Erythema of eyelid: subjects %: (5.6%)
  Erythema of eyelid: subjects n: 1
  Eye disorders (SOC): events m: 3
  Eye disorders (SOC): subjects %: (11%)
  Eye disorders (SOC): subjects n: 2
  Eye pain: events m: 0
  Eye pain: subjects n: 0
  Fall: events m: 3
  Fall: subjects n: 2
  Fatigue: events m: 2
  Fatigue: subjects n: 2
  Gastritis: events m: 1
  Gastritis: subjects %: (5.6%)
  Gastritis: subjects n: 1
  Gastrointestinal disorders (SOC): events m: 10
  Gastrointestinal disorders (SOC): subjects %: (39%)
  Gastrointestinal disorders (SOC): subjects n: 7
  General disorders and administration site conditions (SOC): events m: 3
  General disorders and administration site conditions (SOC): subjects %: (17%)
  General disorders and administration site conditions (SOC): subjects n: 3
  Hallucination: events m: 1
  Hallucination: subjects %: (5.6%)
  Hallucination: subjects n: 1
  Headache: events m: 4
  Headache: events, m: 2 and 1
  Headache: subjects %: (17%)
  Headache: subjects n: 3
  Hyperglycaemia: events m: 1
  Hyperglycaemia: subjects %: (5.6%)
  Hyperglycaemia: subjects n: 1
  Hypertension: events m: 0
  Hypertension: subjects n: 0
  Illusion: events m: 0
  Illusion: subjects n: 0
  Incorrect dose administered: events m: 1
  Incorrect dose administered: subjects %: (5.6%)
  Incorrect dose administered: subjects n: 1
  Injury, poisoning and procedural complications (SOC): subjects n: 3
  Insomnia: events m: 2
  Insomnia: subjects n: 2
  Investigations (SOC): events m: 1
  Investigations (SOC): subjects %: (5.6%)
  Investigations (SOC): subjects n: 1
  Irritability: events m: 0
  Irritability: subjects n: 0
  Lip injury: events m: 1
  Lip injury: subjects %: (5.6%)
  Lip injury: subjects n: 1
  Metabolism and nutrition disorders (SOC): events m: 1
  Metabolism and nutrition disorders (SOC): subjects %: (5.6%)
  Metabolism and nutrition disorders (SOC): subjects n: 1
  Micturition urgency: events m: 1
  Micturition urgency: subjects %: (5.6%)
